The full ranking holds about 110,000 compounds; the median of “z-score” is about -0.1, and the highest 2% start at about 2. The list shows a part of the results. Calls of active or inactive are those of the source.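 Rule for the calls: active = z-score in the third read window above 3 or below -3; inactive = the rest.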

The target in the assay is Metabotropic glutamate receptor 8 (Rattus norvegicus) (UniProt P70579). The experiment in a line: mGluR8 Gi/Go-coupled signaling modulation – cell-based, rat, thallium flux, HTS, primary screen (AID 488969). Particulars: HEK293 rat mGluR8, GIRK (G protein-gated inwardly rectifying potassium channel) thallium flux, FluoZin2; at 10 µM; stronger effect = higher value; submaximal glutamate (EC20) added with thallium.
Sequence of UniProt P70579 (P70579 whole entry, looked up): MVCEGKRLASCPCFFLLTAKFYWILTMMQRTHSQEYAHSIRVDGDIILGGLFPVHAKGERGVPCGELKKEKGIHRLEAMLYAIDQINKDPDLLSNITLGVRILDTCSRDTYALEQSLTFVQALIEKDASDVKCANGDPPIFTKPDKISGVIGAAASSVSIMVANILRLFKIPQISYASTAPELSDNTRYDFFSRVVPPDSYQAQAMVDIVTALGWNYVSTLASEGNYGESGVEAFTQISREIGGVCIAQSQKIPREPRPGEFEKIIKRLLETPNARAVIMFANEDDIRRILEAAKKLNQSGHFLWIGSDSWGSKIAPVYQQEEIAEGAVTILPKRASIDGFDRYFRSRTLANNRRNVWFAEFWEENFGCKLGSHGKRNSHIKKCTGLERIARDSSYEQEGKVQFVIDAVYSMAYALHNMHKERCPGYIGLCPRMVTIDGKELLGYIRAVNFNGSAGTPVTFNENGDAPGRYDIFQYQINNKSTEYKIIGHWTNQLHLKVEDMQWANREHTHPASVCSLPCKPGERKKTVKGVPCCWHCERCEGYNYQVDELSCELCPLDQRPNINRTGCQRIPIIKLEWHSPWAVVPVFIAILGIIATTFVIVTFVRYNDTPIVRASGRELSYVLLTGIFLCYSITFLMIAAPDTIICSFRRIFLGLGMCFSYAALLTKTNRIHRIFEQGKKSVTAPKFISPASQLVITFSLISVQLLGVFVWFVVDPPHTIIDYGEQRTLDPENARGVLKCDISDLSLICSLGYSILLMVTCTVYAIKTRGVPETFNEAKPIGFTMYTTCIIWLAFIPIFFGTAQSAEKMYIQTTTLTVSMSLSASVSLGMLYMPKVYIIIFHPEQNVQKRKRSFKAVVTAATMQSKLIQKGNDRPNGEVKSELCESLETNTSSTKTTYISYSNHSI
In turn, `CN(C)S(=O)(=O)c1ccc(C(=O)Nc2nc(-c3ccccc3)c(C(=O)c3ccccc3)s2)cc1` came in with a z-score of 0.00341.
As to `Cc1ccccc1CSCC(Nc1ccc(C(=O)O)cc1[N+](=O)[O-])C(=O)O` (configuration not stated), the z-score is -0.0738.
The compound `O=C(NCCC1=CCCCC1)c1ccc2c(=O)n3c(nc2c1)CCCCC3` had a z-score of -0.917.
`Cc1ccc2[nH]c(=O)c(COC(=O)c3ccccn3)cc2c1`: the z-score is -0.486.
The same measure for `O=C(CSCc1cnn(-c2ccccc2)c1-n1cccc1)NCC1CCCO1` (configuration not stated): 0.0662.
Turning to `O=C(CN1CCCN(S(=O)(=O)c2ccc(Br)s2)CC1)Nc1ccc(Cl)cc1`, the z-score was -0.0129.
The same measure for `COc1ccccc1NC(=O)c1nn(-c2ccc(F)c(F)c2)ccc1=O`: 0.117; for `c1ccc(-c2cc(N3CCCCC3)nc(-c3ccccc3)n2)cc1`: -0.21; for `CC(=O)c1cc(-c2ccccc2)n(CC(=O)Nc2cc(C)cc(C)c2)c1C`: -0.238.
With `Cc1ccc(-c2nnn(CC(=O)N3CCC(C)CC3)n2)o1`, the z-score was -0.288.
The compound `O=C(Nc1ccc(-c2cn3ccccc3n2)cc1)c1ccc(Cl)cc1` came in with a z-score of -0.529.
Regarding `COC(=O)c1nc(N)sc1-c1ccccc1`, the z-score is -0.0596.
On to `O=C(NCCSc1ccccc1)c1ccco1`, for which the z-score is -0.0112.
The compound `CCCCn1c(=O)c2ccccc2c2ccccc2c1=O` came in with a z-score of 0.196.
In turn, `CCOC(=O)C1=C(N)N(c2ccccc2)C(=O)C1` displayed a z-score of -0.483.
For the compound `CCOc1cc(S(=O)(=O)n2c(C)nc3ccccc32)ccc1F`, the z-score was found to be 0.607.
In the case of `Nc1nc2nc(SCC(=O)N3CCCc4ccccc43)[nH]c2c(=O)[nH]1`, the z-score was 0.318.
As to `Cn1c(=O)c2c(SCC(=O)c3ccccc3)nc(C3CC3)nc2n(C)c1=O`, the z-score was -0.0681.
In the case of `Nc1nc(-c2ccccc2)nc2sc3c(c12)CCCC3`, the z-score was -0.278.
For the compound `O=C(c1ccncc1)N(Cc1ccco1)Cc1cc2ccccc2[nH]c1=O`, the z-score was -0.495.
In the case of `O=[N+]([O-])c1cc(Cl)ccc1Sc1cccc2cccnc12`, the z-score came to 0.0973.
With `Cn1c(O)c(N=NC(=O)Cn2ccc(C(F)(F)F)n2)c2ccccc21`, the z-score worked out at 0.825.
Take `Cc1ccc(NC(=O)CN(C)CC(=O)Nc2ccc(N3CCOCC3)cc2)c([N+](=O)[O-])c1`: the z-score was -0.253.
In the case of `O=C(CN(Cc1cccs1)C(=O)c1csnn1)NC1CCCC1`, the z-score is -0.424.
As to `CS(=O)(=O)N(CC(=O)NCc1ccco1)c1ccc(Cl)c(C(F)(F)F)c1`, the z-score was active: 4.31.
`COc1ccc(-n2cnc3c(cnn3CCC#N)c2=N)cc1` yielded a z-score of 1.18.
For the compound `CCOc1ccc(C(=O)N(Cc2ccc(OC)cc2)Cc2cc3cc(OC)ccc3[nH]c2=O)cc1`, the z-score is 0.111.
In turn, `COc1cc2c(cc1OC)C(C(=O)Nc1ccc3c(c1)OCCO3)C(c1cccnc1)N(C)C2=O` (configuration not stated) had a z-score of 0.449.
The result for `Cc1ccccc1Cn1ccc(-c2ccc3c(c2)OCO3)n1` reads -0.221.
On to `Cc1ccnc(NC(=O)C23CC4CC(CC(C4)C2)C3)c1`, for which the z-score was -0.108.
The result for `COc1ccc(NC(=O)OC(C)C)cc1` reads -0.841; that for `COc1cccc(C(=O)Nc2cccc(-c3nc4ncccc4o3)c2C)c1`, -0.228.
With `CCN(CC)S(=O)(=O)c1ccc(NS(=O)(=O)c2ccc(C)c(C)c2)cc1`, the z-score worked out at 0.0866.
The compound `CC(=O)N(/N=C1\Sc2ccccc2C1=O)c1ccccc1` returned a z-score of -0.388.
In turn, `O=C(c1cccnc1)N1CCN(c2ccc([N+](=O)[O-])cc2Cl)CC1` came in with a z-score of 0.396.
In the case of `CC1(C)CC(=O)c2cn3ncnc3nc2C1`, the z-score is -0.217.
With `Cc1ccc2c(CC(=O)NCc3ccco3)coc2c1C`, the z-score was 0.19.
As to `CCCCCCCCCn1c2c(c(=N)c3c1CCC3)CCC2`, the z-score is active: 4.64.
Compound `O=C(Cn1c(SCC(=O)N2CCc3ccccc32)nc2ccccc21)NC1CCCC1` yielded a z-score of 0.988.
`O=S(=O)(NCCC1=CCCCC1)c1cccc2nsnc12` yielded a z-score of -0.683.
As to `O=C(c1nc(-c2ccccc2)n(-c2ccccc2)n1)N1CCCCCC1`, the z-score stood at 0.217.
In the case of `CC1(C)CC(=O)C2=C(C1)c1c(ccc3ccccc13)NC2c1ccc(Br)o1` (configuration not stated), the z-score is -0.249.
The compound `CCC(=O)Oc1ccc2ccccc2c1CNC(=O)c1ccccc1` registered a z-score of -1.26.
`CCOC(=O)c1ccc(S(=O)(=O)N2CCN(S(=O)(=O)CC)CC2)cc1` came in with a z-score of -0.0124.
For `CCN1CCc2c(C#N)c(N3CCOCC3)nc(NCCO)c2C1`, the z-score is -0.118.
The result for `CC(N=Cc1ccccc1O)c1ccccc1` (configuration not stated) reads -0.206; that for `COc1ccc2nc(/C(C#N)=C\c3ccc(Oc4ccc([N+](=O)[O-])cn4)cc3)[nH]c2c1`, -0.3; that for `CCn1ncc(Cl)c1C(=O)Nc1cc(Cl)ccc1Cl`, 0.0474.
The same measure for `Cc1ccc(C(=O)Nc2ccccc2C(=O)NC(C(=O)O)C(C)C)cc1` (configuration not stated): -0.939.
`Cc1ccc(/C(N)=N/OC(=O)N2c3ccccc3Sc3ccccc32)cc1` came in with a z-score of 0.0341.
Compound `OC1(c2cccc(C(F)(F)F)c2)CCN(c2ncnc3c2[nH]c2ccccc23)CC1` returned a z-score of 0.406.
`COCCCNC(=O)Cn1nnc(-c2ccccc2NC(=O)c2ccc(F)cc2)n1` returned a z-score of 1.89.
`CCn1c(=O)c([N+](=O)[O-])c(N2CCOCC2)c2ccccc21` yielded a z-score of -0.199.
The result for `CCCOc1ccc(C(=O)Nc2nc(C)c(Cc3ccc4c(c3)OCO4)s2)cc1` reads -1.11; that for `CCCN1Cc2cccc(C(=O)Nc3ccc(S(=O)(=O)N4CCCCCC4)cc3)c2C1=O`, -0.212.
The compound `CC(C)CC(=O)N1CCN(CC2CC=CCC2)CC1` (configuration not stated) came in with a z-score of 0.476.
The same measure for `O=C(Nc1ccc(F)cc1F)c1ccccc1-c1ccccc1`: -0.0645.
The compound `CONC(=O)c1cc(OCC(F)(F)F)ccc1OCC(F)(F)F` registered a z-score of 0.0114.
Compound `COCCCNC(=O)c1nc2c(nnn2Cc2cc(C)ccc2C)c(=O)[nH]1` yielded a z-score of -0.145.
In turn, `Cc1sc2nc(C(C)(C)C)oc(=O)c2c1C` displayed a z-score of -0.0397.
In the case of `Brc1ccc(Oc2ncc(CN3CCOCC3)s2)cc1`, the z-score is -0.109.
`CCCCCSc1nnc(-c2cc(Br)ccc2N)c(=O)[nH]1`: the z-score was -0.152.
The result for `CCc1cccc(NC(=O)CCC(=O)O)c1` reads -0.104.
In the case of `O=C(Cn1c(=O)sc2ccccc21)Nc1ccc(S(=O)(=O)N2CCCCC2)cc1`, the z-score is -0.11.
`Cc1ccc(NC(=O)Nc2ccccc2C#N)c(Cl)c1` registered a z-score of -0.0673.
The same measure for `COc1ccc(S(=O)(=O)N(C)CC(=O)Nc2cccc(C(C)=O)c2)cc1Cl`: -0.0605.
The compound `COc1ccccc1C(=O)Nc1nnc(-c2ccc3c(c2)CCCC3)o1` registered a z-score of -0.536.
Take `Cc1ccc(CNC(=O)CCNC(=O)c2ccco2)cc1`: the z-score amounted to 0.0138.
`O=S(=O)(NCC1OCCc2ccccc21)c1ccccc1` (configuration not stated) showed a z-score of -0.014.
The result for `O=C(NC1CC1)C1CCN(Cc2cnn(-c3ccccc3)c2-n2cccc2)CC1` reads 0.0858; that for `O=S(=O)(NCC(Nc1ccc(Cl)cc1)c1ccccc1)c1ccccc1` (configuration not stated), -0.268.
The result for `O=C(N1CCCCC1)N1CCN(C(=O)N(c2ccccc2)c2ccccc2)CC1` reads active: 3.16.
For the compound `COc1cc(NC(=O)Nc2ccccc2)c(OC)cc1NC(=O)CN1CCCCC1`, the z-score is -0.428.
On to `COC(=O)c1c(-c2ccccc2)csc1NC(=O)CSc1ncnc2sc(C)c(C)c12`, for which the z-score was -0.0554.
For the compound `COC(=O)c1cccc(-n2cnnn2)c1`, the z-score was -0.171.
Regarding `COCCNC(=O)c1c[nH]c2ccc(OC)cc2c1=O`, the z-score is 0.733.
On to `CC(C)Cn1c(-c2cc([N+](=O)[O-])ccc2Cl)nc2c1c(=O)[nH]c(=O)n2Cc1ccccc1`, for which the z-score was -0.213.
Consider `CCOC(=O)C1(P(=O)(c2ccc(Cl)cc2)c2ccc(Cl)cc2)CCC1`, for which the z-score is 0.0882.
Turning to `COC(=O)c1ccc(CSc2nc3ccc(C)cc3[nH]2)o1`, the z-score is -0.48.
`CC(=O)c1cnc(N(C)C)s1` yielded a z-score of 0.141.
On to `C=CCNC(=O)c1nc2ccccc2s1`, for which the z-score came out at 0.436.
As for `O=C(c1ccccc1)c1cnc(Nc2ccccc2Cl)s1`, the z-score was -0.0732.
The result for `O=C(CSc1nnc(-c2ccccc2Cl)o1)Nc1ccc2c(c1)OCCO2` reads -0.339; that for `COc1ccc(OC)c(NC2c3ccccc3C(=O)N2c2cccnc2)c1` (configuration not stated), -0.227.
Consider `CCN(CC)c1ccc(/C=C/C(=O)c2ccc(Br)cc2)cc1`, for which the z-score is -0.604.
`CC(C)(C)C(=O)Nc1cc(C(F)(F)F)ccc1N1CCOCC1` yielded a z-score of -0.137.
The result for `CCCCCCSc1nsc(NC(C)=O)n1` reads -0.485.
In turn, `CCc1ccc(-c2cc(C(=O)N3N=C(C(F)F)CC3(O)C(F)F)c3ccccc3n2)cc1` (configuration not stated) gave a z-score of -0.151.
Regarding `Cc1ccc(/C=C/C(=O)N2CCc3ccccc3C2)cc1`, the z-score is -0.018.
As for `CCN(CC)CCNC(=O)c1ccc(Cl)c(S(=O)(=O)N2CCCCCC2)c1`, the z-score was 1.85.
The result for `CCOC(=O)N1CCC(NC(=O)CCC(=O)N2CC(C)Oc3ccc(Cl)cc32)CC1` (configuration not stated) reads -0.627; that for `COCCSc1nnc(-c2cccc(C#N)c2)n1C`, 2.31; that for `CN(C)c1ncnc2c1NC1=C(S2)C(=NCCCC(=O)O)CC(C)(C)C1`, -0.245.
Take `O=C(O)CCn1c(SCc2cccc3ccccc23)nc2ccccc21`: the z-score worked out at 2.1.
Turning to `CCCCn1c(N)c(C(=S)NC(=O)CC(C)(C)C)c(=O)n(C)c1=O`, the z-score is active: 9.54.
Compound `C=CCSc1nn2c(=O)c3ccccc3nc2s1` gave a z-score of -0.0919.
In the case of `Cc1cc2cc3c(cc2nc1SCC(=O)N1CCN(C(=O)c2ccco2)CC1)OCO3`, the z-score was active: -3.74.
`CC1CCCCN1S(=O)(=O)c1coc(C(N)=O)c1` (configuration not stated) displayed a z-score of 0.0539.
With `CCOC(=O)NC1(C(F)(F)F)C(=O)N(Cc2ccccc2)C2=C1C(=O)CC(C)(C)C2` (configuration not stated), the z-score was -0.817.
The compound `Cc1noc(C(=O)N2CC3(C)CC2CC(C)(C)C3)c1Cl` (configuration not stated) had a z-score of -0.183.
The compound `COc1ccccc1C(c1nnnn1Cc1ccco1)N1CCN(c2cccc(C)c2C)CC1` (configuration not stated) had a z-score of -0.0712.
As for `CCOC(=O)C1C(=O)C=C(C)C(C(=O)OCC)C1c1ccc(OC)cc1` (configuration not stated), the z-score is -0.575.
The compound `Cc1ccc(-c2nc3cccnc3o2)cc1NC(=O)COc1ccc(C(C)(C)C)cc1` displayed a z-score of 0.0266.
The same measure for `O=C1c2ccccc2S(=O)(=O)N1Cc1cccc(S(=O)(=O)N2CCOCC2)c1`: 0.684.
The same measure for `COc1ccc(C(=O)N2CCN(c3cccc(Cl)c3)CC2)cc1`: -0.34; for `COC(=O)C(O)(CC(=O)Nc1ccc(C)c(F)c1)C(F)(F)F` (configuration not stated): -0.207.
The result for `Cc1csc(NC(=O)C2CCCO2)n1` (configuration not stated) reads -0.199.
As for `Cc1scc(C(=O)Nc2ccon2)c1-c1ccccc1`, the z-score is -0.503.
The same measure for `N#Cc1cc(NCC2CCCO2)c([N+](=O)[O-])cc1C#N` (configuration not stated): -0.0308; for `CC(C(=O)NCc1cccs1)n1cccc1` (configuration not stated): -0.128.
The result for `COc1ccc(NC(=O)/C=C/c2ccccc2)cn1` reads 0.0122; that for `CC(OC(=O)c1ccccc1NS(=O)(=O)c1cccc(C(F)(F)F)c1)C(=O)N(C)Cc1ccccc1` (configuration not stated), 0.0329.

Values taken from PubChem BioAssay AID488969 (Vanderbilt High Throughput Screening Facility, 2010).
